PubChem BioAssay (NCATS)
Inconclusive results are not listed. Calls follow the shape of the dose curve; as a rule, active = well fitted inhibition curve with a large enough effect; inconclusive = small, poorly fitted or top-dose-only effect; inactive = no such curve, though single readings can be large or run the other way. Some structures have more than one record in an assay (separate samples or runs), and their calls can disagree. For part of its entries the source gives two or more results. They are shown here; other results are not. An entry can have further records. Values that stand side by side are repeated measurements across runs, samples, wells, individuals or studies. What stands in brackets tells the records apart. A, B and so on number the origins entry by entry.

Tests used:
[1] = system: Zika virus NS2B-NS3 protease (linked); experiment: 384 well plate NINDS AMC confirmatory qHTS for Zika virus inhibitors (AID 1347163); conditions: Recombinant NS2B-NS3 protease, Ac-VKTGKR-AMC fluorescence; series mostly up to 100 µM; also: nearly all actives have a fitted effect of over 50% in size
Summary of the method: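 Linked NS2B-NS3 protease (final 5 nM, 30 nM or 60 nM) was preincubated with compounds (final up to 1 mM) for ~15 minutes. Ac-VKTGKR-AMC substrate (final 30 microM) then reacted for 25 minutes at room temperature in the dark. Fluorescence (ex 355/em 460 nm) was normalized to no-enzyme and no-inhibitor controls.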

[2] = Primary qHTS for inhibitors of La Crosse Virus (LACV) - induced cell death in SH-SY5Y cells (AID 1508616); conditions: SH-SY5Y LACV cytopathicity rescue, ATP luminescence, 6 d; series mostly up to 9.63 µM
Summary of the method: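 SH-SY5Y cells (6000/well) plated 24 h, then given compounds by pin transfer and LACV at 0.01 MOI for 6 days at 37C. Viability measured by ATPLite luminescence, normalized to infected DMSO and uninfected DMSO.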
Potency is read from the fitted curve at half-maximal effect.

SMILES | Potency [1] | Potency [2]
CN(C)[C@@H]1C(=O)C(C(N)=O)=C(O)[C@@]2(O)C(=O)C3=C(O)c4c(O)ccc(Cl)c4[C@@H](O)[C@H]3C[C@@H]12 | active: 100 µM [sample A] and inactive [sample B] | –
CSc1ccc(C(=O)c2[nH]c(=O)[nH]c2C)cc1 | – | inactive [sample A] and active: 447 nM [sample B]
